About 1,700 (3.3%) of roughly 52,000 compounds were called active. Rule as the data show it: active = survival mostly below about 52% (no sharp cut-off); inactive = mostly above about 56%. This is one part of the list.

This assay has as its system Wild type. In words: S. aureus survival, RN4220 and DeltatarO strains – OD600, teichoic acid synthesis inhibitors, primary screen (AID 463173). The note with it: S. aureus RN4220 wild type/DeltatarO growth, OD600, 18 h, active compounds read low, screened at 18.75 µg/mL (by protocol).
For `O=C(CSc1nc2c([nH]c3ccccc32)c(=O)n1-c1ccccc1)Nc1ccc2c(c1)OCCO2`, the survival is inactive: 87%.

With `COc1ccc(NC(=O)Cn2ncc3c2-c2ccccc2OC3)cc1Cl`, the survival was inactive: 67%. Turning to `Cc1cccc(NC(=O)c2sc3nc(N4CCOCC4)c4c(c3c2N)CC(C)(C)OC4)c1`, the survival was inactive: 71%. Under `CC1=C(C(=O)Nc2ccc(C)cc2Cl)C2(CCCCCC2)OC1=O` stands inactive: 113%; under `CC(=O)N1c2ccc(S(=O)(=O)NCCC(=O)Nc3ccc(Br)c(C)c3)cc2CC1C` (configuration not stated), inactive: 85%. Under `CCC(=O)c1cc2c(cc1NC(=O)c1ccccc1F)OCCO2` stands inactive: 81%; under `CCN(CC)c1sc(S(=O)(=O)c2ccccc2)nc1S(=O)(=O)c1ccc(C)cc1`, inactive: 80%. Under `CCOc1ccc(CCNC(=O)c2ccc(-n3c(C)cc4c3CCC(C)C4)cc2)cc1OCC` (configuration not stated) stands inactive: 84%. `CCN(CCCNC(=O)c1cc2c(Cl)nc3ccccc3c2s1)Cc1ccccc1`: the survival is inactive: 96%. As to `Cc1ccc(C)c2sc(N3CCN(C(=O)C(C)(C)C)CC3)nc12`, the survival was inactive: 85%. Then `CC(=O)OC(COCc1ccccc1)Cn1cnc2ccccc21` (configuration not stated), with inactive: 119%. Then `COc1ccc(N2CC(NC(=O)c3ccc(S(=O)(=O)N4CCOCC4)cc3)CC2=O)cc1OC` (configuration not stated), with inactive: 73%; and `CCN(CC)CCNC(=O)Nc1ccc2c(c1)N(Cc1ccccc1)C(=O)c1ccccc1S2`, with inactive: 106%; and `CCOC(=O)c1cn(CC2CC2)c2cc(F)c(F)cc2c1=O`, with inactive: 93%.

Consider `CC(C)(C)c1ccc(-c2nc(SCC(=O)Nc3ccc(Cl)cc3)[nH]c(=O)c2C#N)cc1`, for which the survival was inactive: 25%. Under `CC(=O)NCCn1c(SCC(=O)Nc2ccc(C)cc2)nc2ccccc2c1=O` stands inactive: 73%; under `CCCCNC(=O)C1CCC(CNS(=O)(=O)c2ccc(Cl)cc2)CC1` (configuration not stated), inactive: 119%; under `CCc1ccc(S(=O)(=O)N(C(=O)Oc2ccccc2)c2ccc3oc(C)c(C(=O)OC)c3c2)cc1`, inactive: 89%.

As to `CCCCn1c(SCC(=O)NCc2ccco2)nc2ccccc2c1=O`, the survival is inactive: 107%. In the case of `CCCCOc1cccc(C(=O)N(Cc2cccs2)c2ccc(OC)cc2)c1`, the survival was inactive: 83%. Under `Cc1c(-c2ccc(Cl)cc2)c(=O)oc2ccc(OC(=O)N3CCOCC3)cc12` stands inactive: 68%; under `COc1cccc(-n2c(-c3cccc(F)c3)nc3c(cnn3-c3ccc(C)cc3)c2=O)c1`, inactive: 87%. Under `COCCn1nnnc1C(c1cc2c(C)ccc(C)c2[nH]c1=O)N1CCCc2ccccc21` (configuration not stated) stands inactive: 105%; under `Cc1ccc(Cl)cc1-n1ncc2c(N3CCCCCC3)ncnc21`, inactive: 120%. Consider `CCCCN(CCCC)C(=O)C1CCN(S(=O)(=O)c2cccc3nsnc23)CC1`, for which the survival was inactive: 129%. Then `CCN(Cc1ccccc1)c1ncnc2c1nnn2C`, with inactive: 65%. Then `O=S(=O)(NCc1ccc(Cl)cc1)c1ccc(-c2cnc(C3CC3)o2)cc1`, with inactive: 77%; and `COc1ccc(OC)c(/C=C/C(=O)Nc2ccc(C(=O)OCCC(C)C)cc2)c1`, with inactive: 42%. As for `Cc1ccccc1CN1C(=O)c2ccccc2Sc2ccc(C(=O)NC3CCCC3)cc21`, the survival was inactive: 75%. Turning to `COc1ccccc1CNC(=O)CC(c1ccc(OC)c(OC)c1)N1Cc2ccccc2C1=O` (configuration not stated), the survival was inactive: 84%. Under `CCc1cnc2c(c1SCC(=O)c1ccc(OC)cc1)c(=O)n(C)c(=O)n2C` stands inactive: 75%; under `O=C(NCc1ccc(F)cc1)c1cc(-c2ccc(Cl)cc2)n[nH]1`, inactive: 94%; under `O=C(Nc1cccnc1)c1cc(-c2cccc(Cl)c2)on1`, inactive: 141%. Under `O=C(O)c1cccc(Nc2ncnc3scc(-c4ccccc4)c23)c1` stands inactive: 64%. As for `CCc1ccc(S(=O)(=O)c2nnn3c2nc(Nc2ccc(F)cc2)c2cc(Cl)ccc23)cc1`, the survival is inactive: 94%. Under `CCC(C)NC(=O)CCSc1nc(-c2ccc(OC)cc2)cc(C(F)(F)F)n1` (configuration not stated) stands inactive: 127%; under `CN(C)c1ccc(-c2nc3ccccc3s2)cc1`, inactive: 114%; under `COc1ccc(NC(=O)c2cc(CN3CCCC3)on2)cc1Cl`, inactive: 72%.

On to `N=c1n(CCN2CCCCC2)c2ccccc2n1CC(=O)c1ccc(Br)s1`, for which the survival was inactive: 104%. Then `CC(C)N(Cc1ccc(C(=O)O)o1)C(C)C`, with inactive: 112%; and `Cc1ccccc1C(=O)Oc1c(Sc2ccccc2)c(C)nn1C(C)(C)C`, with inactive: 50%. Then `Cc1ccc(C(=O)Nc2nnc(S(=O)(=O)N3CCc4ccccc43)s2)cc1`, with inactive: 33%; and `CN1C(=O)/C(=C/C=C2/CCCN2C)N(C)C1=S`, with inactive: 109%; and `COc1ccc(CC(=O)NCc2ccc3c(c2)CCN3C(=O)c2ccc(Cl)cc2)cc1`, with inactive: 83%. With `CCc1ccc2oc(-c3cc(NC(=O)c4cccnc4)cc(C)c3O)nc2c1`, the survival was inactive: 87%. Then `COc1ccc(CCNC(=O)Cn2ncc3c(=O)oc4ccccc4c32)c(OC)c1`, with inactive: 76%; and `CCOc1ccc(NC(=O)c2oc3ccccc3c2NC(=O)c2cc(C)cc(C)c2)cc1`, with inactive: 70%.

With `CCOc1ccc(NC(=O)c2cnc(Nc3ccccc3OC)c3ccccc23)cc1`, the survival is inactive: 68%. In the case of `CC(C)Oc1ccc(CNC(=O)c2cccc(NC(=O)N3CCSc4ncccc43)c2)cc1`, the survival is inactive: 79%. Then `Cc1cccc(Cc2c(C)nc3nc(SCC(=O)NCc4ccccc4)nn3c2C)c1`, with inactive: 71%; and `CCOC(=O)CSc1nc2sc3c(c2c(=O)n1-c1ccccc1)CCC(C(C)(C)C)C3` (configuration not stated), with inactive: 70%.

As for `CCC(=O)N1CCc2cc(Br)cc(S(=O)(=O)N3CCCC(C(=O)Nc4cccc(F)c4)C3)c21` (configuration not stated), the survival is inactive: 95%.

As to `CCOc1ccc(CCNC(=O)CCSCc2ccc(Cl)cc2)cc1OCC`, the survival was inactive: 76%.

Regarding `COc1cccc(CNC(=O)CN(c2ccc(C(C)C)cc2)S(=O)(=O)c2c(C)noc2C)c1`, the survival is inactive: 76%. Then `O=C(Nc1cccc(Br)c1)N1CCC(CN2CCCCCC2)CC1`, with inactive: 67%; and `Cn1c(=O)oc2cc(S(=O)(=O)N3CCC(C(=O)Nc4ccc(F)c(Cl)c4)CC3)ccc21`, with inactive: 85%; and `CCOC(=O)c1sc(NC(=O)c2cc3nc(-c4ccccc4)cc(C(F)(F)F)n3n2)c(C(=O)OCC)c1C`, with inactive: 63%.

The values are drawn from PubChem BioAssay AID463173 (ICCB-Longwood Screening Facility, Harvard Medical School, 2010).
